# Experimental data taken from PMC4336329 (PLoS ONE, 2015).
# Screen size: about 310,000 compounds; about 14,000 (4.5%) showed an effect of 50% or more. The effect is printed as a negative number. This is one part of the list.
# Target: human ether-à-go-go-related gene (hERG) potassium channel (human, UniProt Q12809)
# Assay: primary screen, population patch clamp on CHO cells stably expressing hERG
# 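Also: peak tail current of the secondary pulse compared with the same well before compound.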
# human ether-à-go-go-related gene (hERG) potassium channel, sequence (Q12809 whole entry, looked up): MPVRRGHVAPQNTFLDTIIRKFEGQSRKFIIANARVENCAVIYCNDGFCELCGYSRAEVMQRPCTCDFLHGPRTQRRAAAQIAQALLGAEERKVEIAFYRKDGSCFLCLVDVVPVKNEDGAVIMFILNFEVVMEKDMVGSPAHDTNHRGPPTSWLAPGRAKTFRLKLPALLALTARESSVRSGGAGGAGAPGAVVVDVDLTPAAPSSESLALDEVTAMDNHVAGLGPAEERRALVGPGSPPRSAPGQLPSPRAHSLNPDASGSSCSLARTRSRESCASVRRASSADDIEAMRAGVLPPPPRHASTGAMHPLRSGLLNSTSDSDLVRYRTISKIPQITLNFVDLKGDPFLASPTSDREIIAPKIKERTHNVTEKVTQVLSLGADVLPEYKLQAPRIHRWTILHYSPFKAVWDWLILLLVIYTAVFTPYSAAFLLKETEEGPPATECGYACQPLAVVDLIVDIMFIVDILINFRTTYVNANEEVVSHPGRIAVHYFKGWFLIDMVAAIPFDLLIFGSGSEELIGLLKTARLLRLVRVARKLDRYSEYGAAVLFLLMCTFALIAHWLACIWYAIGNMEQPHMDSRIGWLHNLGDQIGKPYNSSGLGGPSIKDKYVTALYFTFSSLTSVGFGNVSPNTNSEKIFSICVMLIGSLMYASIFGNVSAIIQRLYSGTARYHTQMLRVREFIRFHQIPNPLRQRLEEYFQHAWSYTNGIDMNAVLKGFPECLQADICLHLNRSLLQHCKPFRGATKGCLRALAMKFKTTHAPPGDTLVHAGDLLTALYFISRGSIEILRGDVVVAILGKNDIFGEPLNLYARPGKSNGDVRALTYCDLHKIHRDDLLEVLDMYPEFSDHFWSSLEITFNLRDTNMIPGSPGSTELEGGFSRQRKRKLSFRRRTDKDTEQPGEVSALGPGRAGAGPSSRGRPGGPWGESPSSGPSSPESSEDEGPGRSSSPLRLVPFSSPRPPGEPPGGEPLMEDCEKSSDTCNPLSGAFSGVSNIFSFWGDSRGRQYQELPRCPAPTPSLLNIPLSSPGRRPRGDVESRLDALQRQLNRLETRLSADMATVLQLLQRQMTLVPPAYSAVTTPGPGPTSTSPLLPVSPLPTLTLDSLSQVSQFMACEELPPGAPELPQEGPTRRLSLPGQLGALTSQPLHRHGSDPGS
row,Compound,"hERG current change (%, negative = inhibition) at 10uM"
1,CC(=O)Nc1ccc(S(=O)(=O)NCCC(=O)NCCc2ccc(F)cc2)cc1,7.64%
2,COc1cc(C(=O)Nc2nc(N)n(-c3ccccc3)n2)cc(OC)c1OC,-5.34%
3,CCN(CC)c1nc(C)c(C(=S)Nc2cc([N+](=O)[O-])ccc2Cl)s1,25.2%
4,O=[N+]([O-])c1cccc(/C=N/N2CCN(Cc3ccccc3)CC2)c1,-0.159%
5,O=C(O)CN1CCN(Cc2ccc(Cl)cc2)C1=O,-12.9%
6,COC(=O)[C@H](C)[C@H]1C[C@]1(C)[C@H](NC(=O)OCc1ccccc1)c1ccccc1,-6.4%
7,COCCN(C(=O)COC(=O)CCS(=O)(=O)c1ccccc1)c1c(N)n(Cc2ccccc2)c(=O)[nH]c1=O,-11.1%
8,CCOC(=O)C1=C(C)N(c2ccccc2)C(=O)/C1=C\c1ccc(O)c(OC)c1,1.82%
9,CCCn1c(O)c(CN2CCCC(C)C2)c(C)c(C#N)c1=O (stereo not drawn),3.04%
10,O=S(=O)(NCc1ccco1)c1ccc2c(c1)Cc1ccccc1-2,7.28%
11,COCc1cc(C)nc2sc(C(=O)N3CCCCC3)c(N)c12,0.926%
12,COc1cccc(-c2noc(C3CCCN(C(=O)c4ccc(F)cc4)C3)n2)c1 (stereo not drawn),0.304%
13,Cc1ccc(NC(=O)c2ccc(C)c(S(=O)(=O)N3CCOCC3)c2)nc1,-6.9%
14,COc1ccc(Cn2nnnc2C(c2cc3cc(C)ccc3[nH]c2=O)N2CCN(C)CC2)cc1 (stereo not drawn),-24.4%
15,CC(C)Cc1ccc(C#N)c(SCC(N)=O)n1,-11.8%
16,CC(=O)c1ccc2c3c(cccc13)C(=O)N(CCc1ccccc1)C2=O,13.4%
17,O=C(CN1C(=O)CCSc2ccc(S(=O)(=O)N3CCCC3)cc21)Nc1ccccc1Cl,21.8%
18,O=C(c1cc(F)ccc1F)C1CCCN(C(=O)c2ccc3nccnc3c2)C1 (stereo not drawn),-50.2%
19,O=C(OCCCCN1C(=O)c2ccccc2C1=O)c1ccc(S(=O)(=O)N2CCCC2)cc1,17.3%
20,Cc1ccc(NC(=S)NCc2ccc3c(c2)OCO3)cc1C,0.695%
21,CC(OC(=O)c1cc(S(=O)(=O)Nc2ccc(F)cc2)ccc1Cl)C(=O)Nc1ccc2c(c1)OCCO2 (stereo not drawn),1.47%
22,CCCn1c(=O)[nH]c(=O)c2c(C(F)(F)F)cc(-c3ccc(C)cc3)nc21,28.2%

row,Compound,"hERG current change (%, negative = inhibition) at 10uM"
1,O=C(CCCc1ccccc1)Nc1ccccc1[N+](=O)[O-],2.99%
2,COc1cc(-c2noc(C3CCCN(C(=O)c4ccccc4)C3)n2)cc(OC)c1OC (stereo not drawn),-8.12%
3,CCCc1nc(SCC(=O)NNC(=O)c2ccc(OC)cc2)c2ccccc2n1,-5.87%
4,c1ccc(-c2ccc3[nH]ccc3c2)cc1,-6.46%
5,O=C(N/N=C/C1CCCCC1)c1cc(Cl)ccc1O,-18.5%
6,O=C(CNC(=O)c1ccc(S(=O)(=O)N2CCCC2)cc1)N/N=C/c1ccc(F)cc1,3.89%
7,O=C1CN(C(=O)c2ccccc2C(=O)O)c2ccccc2N1,17.2%
8,CC(=O)c1cccc(NC(=O)CN2C(=O)c3ccccc3C2=O)c1,14.3%
9,O=C(CCC(=O)N1CCN(c2ccc(F)cc2)CC1)N1CCN(c2ccc(F)cc2)CC1,-43.9%
10,CC(=O)c1cc2c(C)cc(=O)oc2cc1O,1.77%
11,O=C(CCN1C(=O)/C(=C\c2ccccc2)SC1=S)N1CCOCC1,16.3%
12,CCCCOC(=O)C(C)Oc1ccc(=O)n(-c2ccccc2)n1 (stereo not drawn),4.44%
13,O=C(NC1CCN(Cc2ccccc2)CC1)C(NS(=O)(=O)c1cccc2nsnc12)c1ccccc1 (stereo not drawn),-44.6%
14,COc1ccc(OC)c(NC(=O)CCNC(=O)c2ccco2)c1,19.3%
15,O=[N+]([O-])c1ccc(Nc2ccc3ccccc3c2)nc1,-8.76%
16,CCn1c(COc2cccc(C)c2C)nnc1SCC(=O)N1CCN(c2ccc(OC)cc2)CC1,-5.31%
17,O=C(NNS(=O)(=O)c1ccccc1[N+](=O)[O-])c1cccc(Br)c1,-6.26%
18,COc1ccccc1CN1C[C@@H]2C[C@@H](c3ccc(C)cc3)N3CCC[C@@]23C1=O,-43.6%
19,O=C(Cc1ccc(Cl)cc1)Nc1ncccn1,11.1%
20,C=CCN1C(=O)CN=C1Nc1cccc(C)c1.Cl,10.9%
21,C=CCn1c(SCC(=O)Nc2ccc(F)cc2)nnc1-c1cnccn1,-58.9%
22,O=C(CCCc1ccccc1)NCc1ccccc1,15%

row,Compound,"hERG current change (%, negative = inhibition) at 10uM"
1,O=C(NCCc1ccccc1)C(=O)Nc1ccc([N+](=O)[O-])cc1,-2.37%
2,CCOC(=O)C1=C(O)/C(=C\c2ccc(CNS(=O)(=O)c3ccc(Br)cc3)o2)N=C1C,15.7%
3,CCC(c1nnc(SCC(=O)NCC2CCCO2)n1Cc1ccccc1)N(C)C (stereo not drawn),-4.58%
4,COc1ccc(N2CCN(CC(=O)NC(=O)NC(C)(C)C)CC2)cc1,15.6%
5,COc1ccccc1/C=C1\CCC(C2CCCC2)C1=O (stereo not drawn),5.36%
6,O=C(NC1CC2CCCC(C1)N2Cc1cccs1)c1ccc([N+](=O)[O-])cc1 (stereo not drawn),-84.3%
7,N#Cc1ccc(NC(=O)CCc2ccc(S(=O)(=O)N3CCOCC3)cc2)cc1,-51.5%
8,O=C(CCC(=O)Nc1ccccc1Cl)NNS(=O)(=O)c1ccc(Cl)cc1,3.75%
9,COc1ccccc1CN1CCNC(=O)C1CC(=O)NC1Cc2ccccc2C1 (stereo not drawn),-4.81%
10,O=C(/C=C/NNC(=O)c1ccc(Br)cc1)c1ccccc1,8.51%
11,Cc1[nH]c(-c2ccc(F)cc2)cc1C(=O)N1CCN(c2ccccc2)CC1,-58.8%
12,OC(COC(c1ccc(Cl)cc1)c1ccc(Cl)cc1)CN1CCCC1 (stereo not drawn),-77.4%
13,COc1ccccc1C(=O)NC(=O)OCCn1c(C)cnc1[N+](=O)[O-],-7.81%
14,CC1(NC(=O)/C=C/c2nc3ccccc3s2)CCS(=O)(=O)C1 (stereo not drawn),3.96%
15,CS(=O)(=O)N1CCN(Cc2cc(=O)n3ccsc3n2)CC1,19.1%
16,O=C(NN=C(Cc1ccccc1)Cc1ccccc1)c1ccccc1O,6.32%
17,C=CCNc1nc(NC(C)(C)CO)nc(OCC)n1,6.88%
18,CCN1C(=O)C(CC(=O)Nc2ccc(OC)cc2)N(CCc2ccccc2)C1=S (stereo not drawn),-1.28%
19,CC(C)C(c1nnnn1C1CCCCC1)N1CCN(c2ncccn2)CC1 (stereo not drawn),-3.13%
20,CCOC(=O)C1=C(Cc2ccc(C)cc2)C(=O)c2ccccc2C1=O,12.4%
21,COc1ccc2c(c1)N(C)C(=O)CC(c1ccccc1)=N2,-4.57%
22,CCOC(=O)c1c(NC(=O)C(c2ccccc2)c2ccccc2)sc2c1C1CCN2CC1.Cl,5.02%

row,Compound,"hERG current change (%, negative = inhibition) at 10uM"
1,CC(Sc1nnc(-c2ccncc2)n1C)C(=O)Nc1nccs1 (stereo not drawn),3.74%
2,COc1cc(NC(=O)c2ccccc2F)ccc1NC(=O)c1cc2ccccc2o1,15.3%
3,CCCN(CC#CC(O)(c1ccccc1)c1cccnc1)CCC (stereo not drawn),-37.3%
4,c1cc(CSc2nnc(-c3ccc4c(c3)OCO4)o2)ccn1,-16.4%
5,CC(C)c1ccc(NC(=O)c2cc(S(=O)(=O)N3CCCCC3)c[nH]2)cc1,4.26%
6,Cn1c(=O)c2[nH]c(-c3ccccc3)c(O)c2n(C)c1=O,11.8%
7,Cn1ccsc1=NC(=O)c1ccc(S(C)(=O)=O)cc1,19.8%
8,CCN(CC)CCCNC(=O)c1ccc2c(=O)n(Cc3ccc4c(c3)OCO4)c(=S)[nH]c2c1,-38.9%
9,CC1(C)C2([N+](=O)[O-])CN3CC1([N+](=O)[O-])CN(C2)C3c1ccc(O)c(O)c1 (stereo not drawn),12.2%
10,CSCCC(C(=O)N(C)CC(=O)Nc1cccc(F)c1)N1C(=O)c2ccccc2C1=O (stereo not drawn),-10.8%
11,O=C1CCC(=O)O1,14%
12,COC(=O)c1cc(C(=O)OC)cc(S(=O)(=O)Nc2ccc(Cl)c(N)c2)c1,13.5%
13,Cc1cc(O)c(CN2CC=C(c3ccccc3)CC2)cc1C(C)C,-14.1%
14,Cc1ccc(NC(=O)CN2C(=O)NC3(CCCC3)C2=O)c(Cl)c1,4.78%
15,CC(C)(C)c1oc(C(=O)O)cc1CN1CCOCC1.Cl,6.55%
16,CCOC(=O)[C@H]1[C@H]2COc3ccccc3[C@@H]2N2C(=O)c3cc(Cl)ccc3NC(=O)[C@@]12C,-4.58%
17,CC(OC(=O)c1ccccc1NCc1ccco1)C(=O)Nc1ncc(Cl)cc1Cl (stereo not drawn),2.95%
18,COc1cc(NC(=O)c2ccnc(N)c2)cc(C(=O)Nc2cccc(C(F)(F)F)c2)c1,-31.3%
19,CC(C)CNS(=O)(=O)c1ccc(CCC(=O)NCC2CCCO2)cc1 (stereo not drawn),6.44%
20,CC(CC(=O)N1CCN(S(=O)(=O)c2ccc(Cl)cc2)CC1)n1cncn1 (stereo not drawn),-3.5%
21,CN(C)c1ccc(C(=O)C(O)c2ccc(C(C)(C)C)cc2)cc1 (stereo not drawn),5.75%
